The other results are listed elsewhere or left out. No stated cut-off is given here; in the data, active = 3.2 or more and inactive = the rest. Only a few entries rise above the background.
Legend:
Assay in all cases: enrichment score (SH2-bound / input frequency) (ratio); bacterial display of known human phosphotyrosine sites (pTyr-Var adds point mutants) read by sequencing; higher = stronger binding; tyrosines were phosphorylated by kinases first
Details in all cases: peptide library: pTyr-Var
[1] = target: SHP2 C-SH2 domain E139D
[2] = target: SHP2 C-SH2 domain wild-type
[3] = target: SHP2 N-SH2 domain L43F
[4] = target: SHP2 N-SH2 domain T42A
[5] = target: SHP2 N-SH2 domain T52S
[6] = target: SHP2 N-SH2 domain wild-type

Measured: enrichment score
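Further: displayed peptides selected on beads carrying the immobilized SH2 domain, with library peptides lacking any tyrosine serving as negative controls.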

RKKLFYKADGE [SERPINC1_Y272_E269K]
inactive: [1] 0.3 | [2] 0.31 | [3] 0.222 | [4] 0.256 | [5] 0.328 | [6] 0.342

EQKRYYNAMKK [SCN5A_Y1495_K1493R]
inactive: [1] 1.2 | [2] 1.05 | [3] 1.14 | [4] 1.12 | [5] 0.897 | [6] 1.27

SVNIRYLLFPS [SERAC1_Y548]
inactive: [2] 3.1 | [4] 3.1 | [5] 2.86 | [6] 2.79
active: [1] 3.4 | [3] 3.4

EEQKKYYNATK [SCN5A_Y1494_M1498T]
inactive: [1] 0.438 | [2] 0.52 | [3] 0.294 | [4] 0.38 | [5] 0.642 | [6] 0.584

PNATLYKMSSI [SERPINA7_Y40]
inactive: [1] 0.518 | [2] 0.668 | [3] 0.689 | [4] 0.617 | [5] 0.578 | [6] 0.886

NLDRFYQQVTK [SEC16A_Y1041]
inactive: [1] 1.1 | [2] 0.851 | [3] 0.816 | [4] 0.853 | [5] 0.714 | [6] 0.942

EQKKFYNAMKK [SCN5A_Y1495_YF]
inactive: [1] 1.16 | [2] 1.06 | [3] 0.949 | [4] 0.943 | [5] 0.936 | [6] 1.12

RLAQRYLIWEC [SCN5A_Y694]
inactive: [1] 1.23 | [2] 1.26 | [3] 1.07 | [4] 1 | [5] 1.26 | [6] 1.16

SGSWSYNTSTE [SELE_Y24_A21S]
inactive: [1] 0.813 | [2] 0.809 | [3] 0.833 | [4] 0.748 | [5] 0.902 | [6] 0.988

SGRSGYCLGTR [SCO1_Y60_P58S]
inactive: [1] 0.98 | [2] 0.789 | [3] 0.873 | [4] 0.805 | [5] 1.05 | [6] 0.928

HLAQRYLIWEC [SCN5A_Y694_R689H]
inactive: [1] 1.29 | [2] 1.7 | [3] 1.11 | [4] 1.05 | [5] 1.02 | [6] 1.65

PHMQTYEVDPN [SDHB_Y61_L65P]
inactive: [1] 0.818 | [2] 0.706 | [3] 0.86 | [4] 0.47 | [5] 0.804 | [6] 0.91

EQKKYSNAMKK [SCN5A_Y1495_Y1495S]
inactive: [1] 0.902 | [2] 0.912 | [3] 0.942 | [4] 0.59 | [5] 0.826 | [6] 1.09

VVHSSYDEIEG [SEC24A_Y263]
inactive: [1] 0.644 | [2] 0.594 | [3] 0.465 | [4] 0.872 | [5] 0.585 | [6] 0.679

NMHSTYAKLAA [SEC22B_Y193]
inactive: [1] 1.37 | [3] 0.644 | [4] 2.4 | [5] 0.747 | [6] 0.659
active: [2] 3.32

RKELFYKADGE [SERPINC1_Y272]
inactive: [1] 0.662 | [2] 0.487 | [3] 0.405 | [4] 0.315 | [5] 0.466 | [6] 0.554

SGAWSYNTSTE [SELE_Y24]
inactive: [1] 0.919 | [2] 0.76 | [3] 0.843 | [4] 0.911 | [5] 0.691 | [6] 0.841

EEALFYLTRVE [SET_Y119_H118Y_YF]
inactive: [1] 0.886 | [2] 0.749 | [3] 0.853 | [4] 0.797 | [5] 0.687 | [6] 1.01

NDTAGYFVIGG [SEL1L3_Y399_I401V]
inactive: [1] 0.867 | [2] 0.938 | [3] 0.892 | [4] 0.934 | [5] 0.885 | [6] 0.865

VMTVDYSKTVV [SETD2_Y770]
inactive: [1] 0.845 | [2] 0.9 | [3] 0.786 | [4] 1.49 | [5] 0.807 | [6] 0.883

EQKKFYNATKK [SCN5A_Y1495_M1498T_YF]
inactive: [1] 0.671 | [2] 0.802 | [3] 0.543 | [4] 0.654 | [5] 0.577 | [6] 0.936

RLAKRYLIWEC [SCN5A_Y694_Q692K]
inactive: [1] 0.573 | [2] 0.739 | [3] 0.524 | [4] 0.72 | [5] 0.557 | [6] 0.681

SGSFRYGSSFE [SELE_Y390_C394F]
inactive: [1] 0.7 | [2] 0.637 | [3] 0.896 | [4] 0.622 | [5] 0.563 | [6] 0.795

EQKKYYNAMKK [SCN5A_Y1495]
inactive: [1] 1.4 | [2] 1.89 | [3] 1.69 | [4] 1.53 | [5] 1.59 | [6] 1.65

NLDCFYQQVTK [SEC16A_Y1041_R1039C]
inactive: [1] 0.831 | [2] 0.92 | [3] 0.957 | [4] 0.808 | [5] 0.951 | [6] 0.915

SGSFRYGSSCE [SELE_Y390]
inactive: [1] 0.633 | [2] 0.567 | [3] 0.571 | [4] 0.562 | [5] 0.469 | [6] 0.634

EQKRFYNAMKK [SCN5A_Y1495_K1493R_YF]
inactive: [1] 1.29 | [2] 1.21 | [3] 1.06 | [4] 1.11 | [5] 1.14 | [6] 1.31

FMMMRYSQNVR [SDAD1_Y656]
inactive: [1] 1.89 | [2] 1.47 | [3] 1.86 | [4] 1.81 | [5] 1.87 | [6] 2.06

EEQKRYYNAMK [SCN5A_Y1494_K1493R]
inactive: [1] 0.687 | [2] 0.512 | [3] 0.594 | [4] 0.547 | [5] 0.659 | [6] 0.589

PHMQTYEVDLN [SDHB_Y61]
inactive: [1] 0.783 | [2] 0.707 | [3] 0.644 | [4] 0.699 | [5] 0.775 | [6] 0.776

SGRPGYCLGTR [SCO1_Y60]
inactive: [1] 0.773 | [2] 1.04 | [3] 0.875 | [4] 0.762 | [5] 0.933 | [6] 1.06

EEQKKYSNAMK [SCN5A_Y1494_Y1495S]
inactive: [1] 0.55 | [2] 0.691 | [3] 0.701 | [4] 0.441 | [5] 0.457 | [6] 0.806

EQKKFYNAVKK [SCN5A_Y1495_M1498V_YF]
inactive: [1] 1.05 | [2] 0.824 | [3] 0.675 | [4] 0.714 | [5] 0.885 | [6] 0.708

EEQKKYFNAVK [SCN5A_Y1494_M1498V_YF]
inactive: [1] 0.802 | [2] 0.841 | [3] 0.664 | [4] 0.848 | [5] 0.802 | [6] 0.873

PHMQTYEVDHN [SDHB_Y61_L65H]
inactive: [1] 0.618 | [2] 0.723 | [3] 0.824 | [4] 0.502 | [5] 0.668 | [6] 0.861

EEQKKNYNAMK [SCN5A_Y1494_Y1494N]
inactive: [1] 0.736 | [2] 0.605 | [3] 0.608 | [4] 0.53 | [5] 0.665 | [6] 0.776

EEALHYLTRVE [SET_Y119]
inactive: [1] 0.952 | [2] 0.971 | [3] 2.08 | [4] 1.07 | [5] 1.94 | [6] 0.996

From the supplement of paper PMC10369915
